{"source": "ChEMBL document CHEMBL4888484", "about": "“Replenishing the malaria drug discovery pipeline: Screening and hit evaluation of the MMV Hit Generation Library 1 (HGL1) against asexual blood stage Plasmodium falciparum ,using a nano luciferase reporter read-out” (2022)", "note": "The whole screen tested about 150,000 compounds, of which about 540 (0.36%) showed an effect of 50% or more. The list shows a part of the results."}
{"test_system": "Plasmodium falciparum", "assay": "Primary screen in NF54 nanoGlo assay, in single point, at 2uM, 72h; a lower Z score goes with more inhibition", "format": "functional, Erythrocyte", "details": "timepoint 72 hour", "units": {"% Inhibition": "%"}}
{"compound": "Cc1cc(=O)[nH]c(C(C)(C)NC(=O)[C@H](C)c2ccccc2C)n1", "% Inhibition": -15, "Z score": 2.42}
{"compound": "CCOC(=O)c1cccc(NC(=O)c2ccc(Oc3nccnc3N3CCOCC3)cc2)c1", "% Inhibition": 7, "Z score": -1.08}
{"compound": "CCN(C(=O)c1c(C)ccn1C)C1CN(C(=O)c2c(C)ccn2C)C1", "% Inhibition": -12, "Z score": 1.39}
{"compound": "CCn1nc(C(=O)N2CCOC[C@@H]2CC2CC2)c(=O)c2ccccc21", "% Inhibition": -12, "Z score": 2.16}
{"compound": "Cc1sc(-c2ccno2)cc1S(=O)(=O)N1CCc2ccccc2C1", "% Inhibition": 3, "Z score": -0.45}
{"compound": "O=C(CCCN1C(=O)c2ccc(Br)cc2C1=O)Nc1scnc1-c1ccccc1", "% Inhibition": 3, "Z score": -0.37}
{"compound": "Fc1cc(F)cc(-c2noc3ncnc(NCCCN4CCOCC4)c23)c1", "% Inhibition": -9, "Z score": 1.28}
{"compound": "CCC(CC)c1nnc(NC(=O)N(CC)C[C@H]2CCOC2)s1", "% Inhibition": -13, "Z score": 1.28}
{"compound": "CC(C)Cc1nc(C(=O)NS(=O)(=O)c2cnn(C)c2)cs1", "% Inhibition": -3, "Z score": 0.42}
{"compound": "CCN1CCN(Cc2ccc(NC(=O)c3cn(-c4cccc(OC)c4)c(=O)c4ccccc34)cc2)CC1", "% Inhibition": 0, "Z score": -0.05}
{"compound": "CC(C)(CNC(=O)N1CCC[C@H](c2cn[nH]c2)C1)CC1CCOCC1", "% Inhibition": -5, "Z score": 0.67}
{"compound": "COc1ccccc1-c1nc2n(n1)[C@]1(Nc3ccccc3-2)C(=O)Nc2ccc(Br)cc21", "% Inhibition": -10, "Z score": 0.98}
{"compound": "Cn1cccc(NC(=O)NCC2CC23CCCc2ccccc23)c1=O", "note": "(centres undefined)", "% Inhibition": -6, "Z score": 0.53}
{"compound": "O=C(NS(=O)(=O)c1ccc2[nH]nnc2c1)C1CC2(CCC2)C1", "% Inhibition": -7, "Z score": 0.68}
{"compound": "CN(Cc1cnccn1)Cc1ccccc1-c1ccco1", "% Inhibition": 4, "Z score": -0.71}
{"compound": "Cc1ccc(Oc2ccc(C(=O)N3CCCC[C@@H]3C)cc2)nn1", "% Inhibition": 3, "Z score": -0.5}
{"compound": "c1cncc(-c2ncc(CN3CCC(C4CCOCC4)CC3)s2)c1", "% Inhibition": 1, "Z score": -0.11}
{"compound": "COc1cccc(CNS(=O)(=O)c2cc(-c3c(C)nn4c3NC(=O)CCC4=O)ccc2OC)c1", "% Inhibition": 2, "Z score": -0.21}
{"compound": "COCCOc1cc(=O)n2c(c1C(=O)NC1CCCCC1)CCOCC2", "% Inhibition": -10, "Z score": 1.19}
{"compound": "Cc1cc(NCCc2nnc(C)s2)n2nccc2n1", "% Inhibition": -18, "Z score": 3.41}
{"compound": "CCC(=O)N1CCc2[nH]cnc2C12CCN(C(=O)c1cc(C)ccc1O)CC2", "% Inhibition": 2, "Z score": -0.41}
{"compound": "CC(C)CS(=O)(=O)N1CCC(NC[C@H](C)c2ccccc2)CC1", "% Inhibition": 13, "Z score": -1.29}
{"compound": "NC(=O)[C@@H]1CN(S(=O)(=O)c2cccc(C(=O)NC3CCC3)c2)CCO1", "% Inhibition": -7, "Z score": 0.83}
{"compound": "Cc1ccccc1CC(=O)N1CCN[C@H](C)C1", "% Inhibition": 4, "Z score": -0.72}
{"compound": "c1ccc(Cc2noc(C3CN(Cc4cccnc4)C3)n2)cc1", "% Inhibition": -15, "Z score": 2.83}
{"compound": "O=C(CN1CCCC1)N[C@@H](c1ccccc1)c1ccc2[nH]c(C(F)(F)F)nc2c1", "% Inhibition": -17, "Z score": 1.74}
{"compound": "CC(C)c1nc(Cn2cnnn2)n(-c2ccc(Cl)cc2)n1", "% Inhibition": 11, "Z score": -1.59}
{"compound": "CC1CCCC(C(=O)N2CCC(c3ncc(C(=O)O)s3)CC2)C1", "note": "(centres undefined)", "% Inhibition": 1, "Z score": -0.11}
{"compound": "CC[C@H]1CCCCN1c1oc(-c2ccc(OCc3ccccc3Cl)cc2)nc1C#N", "% Inhibition": 0, "Z score": 0.06}
{"compound": "O=C(Cc1ccsc1)N1CCC[C@H](Oc2cccnn2)C1", "% Inhibition": 0, "Z score": 0.03}
{"compound": "O=C(NCCCc1ccccc1)c1ccc(CN2C(=O)CCn3nccc32)cc1", "% Inhibition": 58, "Z score": -2.28}
{"compound": "O[C@H]1CCN(Cc2ccc(OC(F)F)c(Cl)c2)C1", "% Inhibition": -13, "Z score": 1.47}
{"compound": "CCn1c(=O)c(-c2noc(C(=O)NC3CCCCC3)n2)nn(-c2ccc(F)cc2)c1=O", "% Inhibition": 1, "Z score": -0.21}
{"compound": "CC1OCCC1(C)NC(=O)CCc1c[nH]c2ccccc12", "note": "(centres undefined)", "% Inhibition": -5, "Z score": 0.82}
{"compound": "Cc1noc(C)c1NC(=O)CCc1ccccc1Cl", "% Inhibition": -4, "Z score": 0.56}
{"compound": "CC(C)(CN1C(=O)NC2(CCCC2)C1=O)C(F)(F)F", "% Inhibition": -7, "Z score": 0.92}
{"compound": "Cc1ccc(CN2CCNC(=O)[C@@H]2CC(=O)NCc2cnc3c(c2)CCC3)o1", "% Inhibition": -5, "Z score": 0.97}
{"compound": "Cc1ccc(CN(C)[C@@H](C)C(=O)NC(C)(C)C)c(C)c1", "% Inhibition": -20, "Z score": 3.18}
{"compound": "Cc1ccnc(NC(=O)[C@@H](NC(=O)CC(C)C)C(C)C)c1", "% Inhibition": -7, "Z score": 0.86}
{"compound": "CCN(Cc1c(C)nn(CC)c1C)C(=O)[C@@H]1CC(F)(F)CN1C1CN(S(C)(=O)=O)C1", "% Inhibition": -7, "Z score": 0.83}
{"compound": "CC(C)N1C[C@H](O)C[C@H]1c1nc(-c2cccnc2)no1", "% Inhibition": 7, "Z score": -0.87}
{"compound": "COc1cccc(CC(=O)N2CCc3nc(N4CCC(C)CC4)nc(Oc4ccc(F)cc4F)c3C2)c1", "% Inhibition": -8, "Z score": 1.48}
